{"source": "the supplement of paper PMC12632987", "binders": {"B1": {"name": "traf2_out_20_3_2078 (protein)", "chain": "SELEAELERELDRALALLRQAAARADPETAARLDALIARLRASRELSIEDRLVAISAVRREVRALAEEARAAGRADLAALLDAAADALNRAAQLAYEILE"}, "B2": {"name": "traf2_out_11_104_641 (protein)", "chain": "LTKEQARELNDFAMAQEDEARAVAADLAARLRALGEDEAAARVEAALADSGAGISTFRNLLEDLRPTLSPEAAAAADEAIERLEALQAKVSAKYNELEAK"}, "B3": {"name": "traf2_out_6_169_2498 (protein)", "chain": "SEEEKLKEEAKRHVERAKELLELAKTIYEQAKKNKDKSKIPVYVEALETMLNAAKHHYDEAIAAYEKLGNKEEAAKLKEEKEKTIKEMEEKLKEIKEMLK"}, "B4": {"name": "traf2_out_17_162_1635 (protein)", "chain": "SEVEEALERIEKELEELRKKTKEFEELAKEIEKLTPEELTDYLVEASEARRRALELMEELEELEEYIDPERREKLLEELEEIAEKLQRIANLFYKELEKK"}, "B5": {"name": "traf2_out_20_3_2209 (protein)", "chain": "EELKKELEKELEEALKLLKEAQKLADPETAKVLKELIKRLKESRKLSPEDALVELSEIRREVLLLRDEAEARGDEELAKVLEEAAEKLQRAMNLLYKIIE"}, "B6": {"name": "traf2_out_15_48_1361 (protein)", "chain": "STEDLRKTAREINDLIDATLDEVAKELKELLPKAKEENKPIITEAIETAENHRSINDVIALLDEAIEKSDPELAKKLEELRDRLLATKKEASKLFNETLK"}, "B7": {"name": "traf2_out_13_95_1077 (protein)", "chain": "SKETNEKIMEIADEMLDKVNEVLEELAEKVKDDPEMKAKVEEALHLATHRGINEAIHLLKKLAEENEEYKELLEEAIKKLEEIKEKAGKEVAKLLKEEEE"}, "B8": {"name": "traf2_out_5_63_2368 (protein)", "chain": "SEREKERKELTEEARRIEKVVREALKLSLEEAKKLVKEAIEEGLNINLIAGMFRAEARFLELQGGPEEEIEKARELAEYAEKLREEREAEEAAAAAAAAA"}, "B9": {"name": "traf2_out_13_95_1110 (protein)", "chain": "SKELAKKIMEISDKALDKADATLDALLAQLKASGKLAPEVEAALKAARKSTIRTAIHTLRELAEKYPEFKELFDAAIKELEAIKEEAGKEVAKLIKEEEE"}, "B10": {"name": "traf2_out_16_177_1446 (protein)", "chain": "ERDKLMDRLVILSHLRRAAELAVEGRLDEAREHLAKAREEAEEAGDEEGLELAERIEALIAEDTPEARAELAALARELQKEAQELAEEIEKLIKEEAEKE"}, "B11": {"name": "traf2_out_20_3_2137 (protein)", "chain": "EELKKELEKEKKKAIKLLKEAAKLADPETAEELKKLIKELKESEKLSPEDQLVKLSEIRRKVLRLAEEAKAAGKEELAKLLEKAAEELNKAMNLLMKIIE"}, "B12": {"name": "traf2_out_14_149_1253 (protein)", "chain": "SETEKKKKALKEAKKLMEEIKEILEKALKEGSTEVDKEKIKELVEKAKEILKKQGFVLGHLLAIEEMLETTKEWTLEKIKELKELVEKAAESLEVLAEML"}, "B13": {"name": "traf2_out_6_3_2525 (protein)", "chain": "SSESLRKDARKVLENMGITTAEQLLTLVTAEVNAVKKVASRPDFDRADVAGLRSVLALTRAMVEVAYEELPSVTEADKAEALALIADAEALVEAKAKELE"}, "B14": {"name": "traf2_out_15_17_1302 (protein)", "chain": "KLTPEQIKKEREAADRVLELSDRVTEEVLALVERLAARDPRAAPWLERVKAAARQSVRAALHVAREGAEALGDAEALAELERLWARYEEEVAKISKELNE"}, "B15": {"name": "traf2_out_13_95_1156 (protein)", "chain": "SKELAEKIMEIADEMLDRAEAVLEALLAQARAAGRLEEEVAEALHLARTRSINEAIHRLQELAAAHPEFAAELEAAIAELEALRREAGRKVAELIKEEKE"}, "B16": {"name": "traf2_out_11_169_891 (protein)", "chain": "EEAEKNRKIIDHALELNDEAVEKLKKYALELAKKAGLDEKEVEAIFEKNKGKSLSYVAAELIKYFRSKGKEDAAKAVEEKYEELKEEINKKSTAFIKSLE"}, "B17": {"name": "traf2_out_6_156_2376 (protein)", "chain": "TAAAILAAAEATIKAEIKELAKASEEKKIAHISRIAGAVYRALQALRDAGASVDELRAAGARLRATAEKAAKEAGLPQETRDLLLASIDAVTEVALREAA"}, "B18": {"name": "traf2_out_17_178_1700 (protein)", "chain": "SKEEIRKKISELTDELIDHADRYGTALLARLRAEGVLSPEELAALDAALASGSNRTLLATAEELIPRSAASPETRALLAEWRAETREIAKKIAEAYEKYE"}, "B19": {"name": "traf2_out_17_162_1645 (protein)", "chain": "MELEEEKEEIRRELEELEKRVEELEKKSENIEKYSKEELSDLIVEASEVKRRALELLQRIEELEDELEPEEYEELRSRAEEIIERAQEVANKFYKEYEKK"}, "B20": {"name": "traf2_out_12_187_971 (protein)", "chain": "SVEEELIEAARAALEQALRELEEAAPEDPRFRRFLERLREARELLARHPEVAADLAVAASLVLRAVRLRKAGLPEEEVERAAEEAERELEELLARLRALE"}, "B21": {"name": "traf2_out_9_108_2580 (protein)", "chain": "MTEEEKLEEKFKAILKLVEEFKKTVKLTPEQRESLEAAIKQAKELYEKGEKREAIVLLAIDLARIASEVGEEVTKELLEKLAEIDPIAASAAERMAKLLR"}, "B22": {"name": "traf2_out_8_144_2543 (protein)", "chain": "HMSRRELANRATNILVRLDELIKEADEETKEILTKARRHVGQALNLIVFDGPREEILEELEKAAKYLKEAIEKVKDNPELKEKVEKALEEVKEIIKNVKE"}, "B23": {"name": "traf2_out_19_16_1987 (protein)", "chain": "SMEEAEKLKKEMEEYLDKALKLAKEAVENIDKLSREELMDKLVEISELIRKAREKLQEYLKLAKDNPELRKEVTEKFDEKLDEIQKLMTKIVNKILELRK"}, "B24": {"name": "traf2_out_13_95_1228 (protein)", "chain": "SEETNEELRKISNDMLDKAEAVIDALEAQLAPHPELQPLMDEIRHALNNYGITAAIAKLREAAARFPEVRELLLAAAAELEAIRREAGKKVAEVLKKEEE"}, "B25": {"name": "traf2_out_16_177_1455 (protein)", "chain": "ELAKVMDRLVILSYIKRAALKIVEDNSPEAEEYLKEAREEAEAAGDEEGLKRIDEVEELAAENTPEAKERLKKLAEEAQREAQRLADEAERLIKERAEAE"}, "B26": {"name": "traf2_out_17_162_1552 (protein)", "chain": "SELEERWEELKRRLEELRKELEELKKELENLDKMSKEELTDLLVRASEARREARRLAEELRRLAPELGEEEAGRLRDEAERIAEELQRIANKIYEEILKK"}, "B27": {"name": "traf2_out_17_162_1533 (protein)", "chain": "SATDAELAALKKELEALEKELKKLEEKLKKLDELSKEEISDLLVEASELKRRALELAERLRKLAAETGSPEAKALAERAEAVAERLQRIANKIYKKLEEK"}, "B28": {"name": "traf2_out_16_177_1458 (protein)", "chain": "ELDRVMDRLVILSLIRRAALEIVRSNSPEAERYLAEARAEAEAAGDEEGLARIARIEELAAQNTPEARAELRALAAEAQREAQRLANEAERLIRERAAAE"}, "B29": {"name": "traf2_out_15_48_1338 (protein)", "chain": "STEALQAAARQINDAADKVREEVIKTLDELKPKVSPEVAKEIEELKAAAKAGAPLRTLLAKLEELKKKVSPEVAKKIEESAKKIRDTIKEGSKLMNEVLK"}}, "note": "In all, about 1,800 sequences were measured (“median log2 fold change of GCK-ALFA target abundance (FLAG IP / Myc IP barcode read proportion)”: median about 0.14, lowest 2% from about -0.84 on). This is one part of the list."}
{"target": "T1, TRAF2, Q12933", "T1 chain": "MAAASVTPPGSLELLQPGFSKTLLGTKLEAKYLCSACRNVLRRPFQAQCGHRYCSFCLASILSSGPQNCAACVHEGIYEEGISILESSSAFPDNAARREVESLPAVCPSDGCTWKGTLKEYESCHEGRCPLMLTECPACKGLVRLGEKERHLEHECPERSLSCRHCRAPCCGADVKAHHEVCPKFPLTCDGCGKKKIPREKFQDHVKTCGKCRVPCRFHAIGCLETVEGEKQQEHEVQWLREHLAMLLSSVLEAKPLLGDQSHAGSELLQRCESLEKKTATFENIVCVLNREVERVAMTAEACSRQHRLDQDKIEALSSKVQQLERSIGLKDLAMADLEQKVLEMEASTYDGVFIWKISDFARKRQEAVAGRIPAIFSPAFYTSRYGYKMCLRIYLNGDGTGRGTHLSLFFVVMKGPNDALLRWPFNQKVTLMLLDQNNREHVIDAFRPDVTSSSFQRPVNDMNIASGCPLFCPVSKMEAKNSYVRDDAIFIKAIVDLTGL", "experiment": "median log2 fold change of GCK-ALFA target abundance (FLAG IP / Myc IP barcode read proportion) (log2 ratio); each designed protein is fused to an ALFA-tag nanobody in HEK293 cells to bring the named protein to FLAG-tagged glucokinase (GCK); Myc marks an untargeted standard; higher = target protein stabilised (more abundant)", "settings": "target protein: 3xFLAG-MCP-GCK-ALFA reporter; HEK293 landing pad (RPLP)", "in_short": "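The readout is target abundance, the per-binder median log2 ratio of FLAG to Myc barcode read proportions. It came from HEK293 landing-pad cells carrying a recombined ALFA-nanobody-fused binder library, induced with 2 μg mL^−1 doxycycline and transfected with a plasmid for a FLAG-tagged target and a Myc-tagged standard. After 48 h, lysates were immunoprecipitated with anti-FLAG and anti-Myc, and circular RNA barcodes were reverse transcribed, amplified and sequenced. Each barcode needed a proportion of at least 10^−7 in both replicates and each binder at least 3 barcodes per replicate, a pseudocount of 10^−6 was added, and the replicates were pooled.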"}
{"binder": "B1", "median log2 fold change": -0.0407}
{"binder": "B2", "median log2 fold change": 0.42}
{"binder": "B3", "median log2 fold change": 0.3}
{"binder": "B4", "median log2 fold change": 0.351}
{"binder": "B5", "median log2 fold change": -0.0494}
{"binder": "B6", "median log2 fold change": 0.281}
{"binder": "B7", "median log2 fold change": -0.0213}
{"binder": "B8", "median log2 fold change": -0.0547}
{"binder": "B9", "median log2 fold change": 0.188}
{"binder": "B10", "median log2 fold change": 0.289}
{"binder": "B11", "median log2 fold change": 1.07}
{"binder": "B12", "median log2 fold change": -0.0179}
{"binder": "B13", "median log2 fold change": -0.025}
{"binder": "B14", "median log2 fold change": 0.221}
{"binder": "B15", "median log2 fold change": -0.645}
{"binder": "B16", "median log2 fold change": 0.13}
{"binder": "B17", "median log2 fold change": -0.0213}
{"binder": "B18", "median log2 fold change": 0.0128}
{"binder": "B19", "median log2 fold change": 0.0751}
{"binder": "B20", "median log2 fold change": 0.246}
{"binder": "B21", "median log2 fold change": 0.0407}
{"binder": "B22", "median log2 fold change": 0.238}
{"binder": "B23", "median log2 fold change": -0.716}
{"binder": "B24", "median log2 fold change": 0.105}
{"binder": "B25", "median log2 fold change": 0.194}
{"binder": "B26", "median log2 fold change": 0.324}
{"binder": "B27", "median log2 fold change": 0.192}
{"binder": "B28", "median log2 fold change": -0.327}
{"binder": "B29", "median log2 fold change": 0.238}
